Test results: PubChem BioAssay AID686979 (National Center for Advancing Translational Sciences (NCATS), 2013)
Several values for one entry are separate records, joined by “and”; a condition that tells them apart may be missing. Equal entries are not always repeated. Hit rate of the full screen: of about 420,000 compounds, about 50,000 (12%) were called active. Inconclusive means that the source gave no clear call. Such entries were picked first, then a sample of the others. Calls follow the shape of the dose curve; as a rule, active = well fitted inhibition curve with a large enough effect; inconclusive = small, poorly fitted or top-dose-only effect; inactive = flat fitted curve, though single readings scatter. A potency beside an inconclusive call is a rough fit, not a confirmed value.

Test: qHTS for Inhibitors of human tyrosyl-DNA phosphodiesterase 1 (TDP1): qHTS in cells in presence of CPT; also: nearly all actives have a fitted effect of over 55% in size
Details: chicken DT40 Tdp1-/-;hTDP1 cells + 20 nM CPT, ATP luminescence, 48 h; activity change, negative = growth inhibition: at 46.2 µM (top of the series) unless noted
Procedure, shortened: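 Cell growth measured by CellTiter-Glo luminescence after a minimum 48 h, 37 C compound exposure with 20 nM CPT in Tdp1-knockout DT40 cells stably expressing hTDP1, seeded 400/well; qHTS titration format.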
% is scaled to controls: 0 for no effect and ±100 for the full control effect; potency is read from the fitted curve at half-maximal effect; tags tell the direction and shape of the fitted curve.

Row | Compound | activity change, negative = growth inhibition | Potency
1 | Nc1nc(SCC(=O)Nc2ccc([N+](=O)[O-])cc2)[nH]c(=O)c1NC(=O)c1ccc(Br)cc1 | inactive: 19.8% | –
2 | COc1nc(-c2ccc(C)cc2)ccc1-c1noc(-c2ccc(C(C)(C)C)cc2)n1 | – | inconclusive: 29.1 µM [inhibitor, single point]
3 | CCOc1cccc2cc(-c3csc(NC(=O)CCC(=O)NCCN4CCCCC4C)n3)c(=O)oc12 (stereo not given) | inactive: -3.68% | –
4 | Cc1ccc(C(=O)N2CCN(C3c4cccc5cccc(c45)C3NS(=O)(=O)c3ccccc3)CC2)cc1 (stereo not given) | – | inconclusive: 29.1 µM [inhibitor, single point]
5 | Cc1ccc(NC(=O)COc2ccccc2C(N)=O)cc1S(=O)(=O)N1CCCCCC1 | – | active: 4.11 µM
6 | COc1cc(NC(=O)COC(=O)c2ccccc2SCC(=O)N2CCCC2)cc(OC)c1 | – | inconclusive: 11.6 µM [inhibitor, partial curve]
7 | CC1CCN(S(=O)(=O)c2nnc(NC(=O)c3cccc(F)c3)s2)CC1 | – | inconclusive: 14.6 µM [inhibitor, partial curve]
8 | CC(=O)Nc1cc(C(=O)N2CCc3ccccc3C2)ccc1Sc1ccc(C)cc1 | – | inconclusive: 29.1 µM [inhibitor, single point]
9 | Cc1sc2nc(CSCC(=O)Nc3ccc(N4CCOCC4)cc3)[nH]c(=O)c2c1C | – | inconclusive: 29.1 µM [inhibitor, single point]
10 | COCCC(=O)N1CCC(C(=O)Nc2ccc(Oc3ccccc3)nc2)CC1 | – | inconclusive: 8.2 µM [inhibitor, partial curve]
11 | COc1ccc(-c2nnc(NC(=O)Cc3ccccc3)o2)cc1 | – | inconclusive: 14.6 µM [inhibitor, single point]
12 | COc1ccc(C2N(C(C)=O)CCCN2S(=O)(=O)c2ccc(C)cc2)cc1 (stereo not given) | inconclusive: -31.4% [inhibitor] | –
13 | COc1nc(Nc2cccc(F)c2)nc(OC)n1 | inactive: -8.61% | –
14 | CCN1CCN(c2cc(C)c3cc(NC(=O)c4ccccc4F)ccc3n2)CC1 | – | inconclusive: 20.6 µM [inhibitor, single point]
15 | O=C(c1ccccc1)c1ccc(-c2ccc(O)cc2)cc1 | inactive: -1.24% | –
16 | CCCCc1c(O)nc(SCC(=O)c2ccccc2)[nH]c1=O | – | inconclusive: 6.51 µM [inhibitor, full curve]
17 | Cc1cccc(N(Cc2cc3ccccc3[nH]c2=O)C(=O)c2cccs2)c1 | – | inconclusive: 20.6 µM [inhibitor, single point]
18 | N#CC1=C(N)OC2=C(C(=O)CCC2)C1C1CC=CCC1 (stereo not given) | inactive: -5.51% | –
19 | CCC(=O)N1CCC2(CC1)Oc1ccc(Cl)cc1C(=O)C21CC(c2ccc(Cl)cc2)=NO1 (stereo not given) | – | inconclusive: 20.6 µM [inhibitor, single point]
20 | CCOc1ccc2oc(=O)cc(CN3CCN(c4ccc(Cl)cc4)CC3)c2c1 | – | active: 23.1 µM
21 | Cc1ccc(S(=O)(=O)NCC(c2cccnc2)N2CCN(Cc3ccccc3)CC2)cc1 (stereo not given) | inactive: -25.4% | –
22 | Oc1ccccc1-n1nc2ccc3nonc3c2n1 | inactive: 8.62% | –
23 | CCCCN1CC(=O)N2[C@@H]3c4cc(Br)ccc4OC[C@@H]3[C@H](C(=O)OCC)[C@]2(C)C1=O | – | inconclusive: 18.4 µM [inhibitor, single point]
24 | Cn1nc(C(F)(F)F)c(/C=N/OC(=O)c2ccccc2)c1Sc1ccc(Cl)cc1 | – | active: 23.1 µM

Row | Compound | activity change, negative = growth inhibition | Potency
25 | COc1cc2c(C(=O)N(C)c3ccc(F)cc3)cn(C)c(=O)c2cc1OC | inactive: -12.1% | –
26 | Cc1ccc(OCC(=O)OCc2nc3scc(-c4ccccc4)c3c(=O)[nH]2)cc1C | inactive: -1.91% | –
27 | COc1cccc(C(C(=O)NC2CCCC2)N2CCN(c3ncccc3C#N)CC2)c1OC (stereo not given) | – | inconclusive: 20.6 µM [inhibitor, single point]
28 | Cc1c(C(=O)N(Cc2ccc(N(C)C)cc2)CC2CCCO2)oc2ccc(Br)cc12 (stereo not given) | – | inconclusive: 29.1 µM [inhibitor, single point]
29 | CC(=O)c1cccc(NC(=O)CSc2ccc(-c3sc(C)nc3C)nn2)c1 | – | active: 20.6 µM
30 | CCc1cccc(C)c1NC(=O)CN(C)S(=O)(=O)c1cccc2nsnc12 | – | inconclusive: 25.9 µM [inhibitor, single point]
31 | Cc1ccc(-c2nnc(SCC(=O)CC(=O)Nc3ccccc3)n2-c2ccccc2)cc1 | inactive: -2.66% | –
32 | Cc1cccc(OCC(=O)NC2CCCc3ccccc32)c1C (stereo not given) | – | inconclusive: 20.6 µM [inhibitor, single point]
33 | Nc1n[nH]c(N)c1N=Nc1cccc(F)c1 | – | inconclusive: 6.51 µM [inhibitor, single point]
34 | CC(=O)Nc1cccc(-c2ccnc3c2CC(C(=O)Nc2cccc(OC(F)(F)F)c2)O3)c1 (stereo not given) | – | inconclusive: 29.1 µM [inhibitor, single point]
35 | COCCn1c(-c2ccc(Cl)cc2)nc2oc3cc(OC)ccc3c(=O)c2c1=O | – | inconclusive: 29.1 µM [inhibitor, single point]
36 | O=C(NCc1ccc2c(c1)OCO2)c1c(F)c(F)c(F)c(F)c1F | inactive: -9.35% | –
37 | CCCCCc1ccc(C(=O)CCCC)c(=S)[nH]1 | inactive: -24.5% | –
38 | COc1ccccc1-c1ccc2c(c1)C(C)(Cc1ccccc1C#N)C(=O)N2 (stereo not given) | – | active: 20.6 µM
39 | CCOc1ccc(CN(C)CC(=O)Nc2cc(OC)c([N+](=O)[O-])cc2C)cc1 | – | inconclusive: 1.64 µM [inhibitor, full curve]
40 | CC(C)(C)C(=O)N1CCN(c2ncccc2C(F)(F)F)CC1 | inactive: -26% | –
41 | Cc1c(N)cc[n+](CC(=O)c2ccccc2)c1C | – | active: 20.6 µM
42 | CN(C)CCCN(C(=O)c1ccc(S(=O)(=O)N(C)Cc2ccccc2)cc1)c1nc2cc3c(cc2s1)OCO3 | inactive: -72.3% | –
43 | CC(=O)OC1CC[C@]2(C)C(CC(OC(C)=O)[C@@]3(C)C4=CC(=O)OC(c5ccoc5)[C@]4(C)CCC23)C1(C)C (stereo not given in full) | – | inactive and inconclusive: 18.4 µM [inhibitor, single point] and inconclusive: 20.6 µM [inhibitor, single point]
44 | CCCCC[C@H]1CN(CCc2ccccc2)C(=O)[C@@H]1CC(=O)NCc1ccc(OC)cc1 | – | inconclusive: 20 µM [inhibitor, single point] and inconclusive: 25.9 µM [inhibitor, single point]
45 | COc1cc(C(=O)Nc2nnc(C)s2)cc(OC)c1OC | inactive: 10.4% | –
46 | O=C(NNc1c(F)c(F)cc(F)c1F)c1ccco1 | inactive: -19.7% | –
47 | CC(/C=N/NC(=O)c1nnn(-c2nonc2N)c1C(C)C)=C\c1ccco1 | – | inconclusive: 23.1 µM [inhibitor, single point]
48 | CC(C)c1ccc2oc(=O)cc(CN3CCN(c4ccc(F)cc4)CC3)c2c1 | – | inconclusive: 25.9 µM [inhibitor, single point]

Row | Compound | activity change, negative = growth inhibition | Potency
49 | Cc1ccc(S(=O)(=O)c2cn(C)c3cc(N4CCCCC4)c(F)cc3c2=O)cc1 | – | inconclusive: 29.1 µM [inhibitor, single point]
50 | CCOc1ccccc1NC(=O)COc1ccc(S(=O)(=O)N2CCCC2)cc1 | – | inconclusive: 20.6 µM [inhibitor, single point]
51 | CN(C)c1cccc2ccccc12 | – | inconclusive: 35.5 µM [inhibitor, single point]
52 | Cc1ccc2nc(SCC(=O)c3ccc(Cl)cc3)nc(=O)n2c1 | – | inconclusive: 29.1 µM [inhibitor, single point]
53 | O=C(C1CCN(S(=O)(=O)c2cccnc2)CC1)N1CCN(c2ccc(Cl)cc2)CC1 | – | active: 5.17 µM
54 | CC(=O)Nc1ccccc1C(=O)C(=O)Nc1ccc(Cl)cc1 | inactive: -13.6% | –
55 | CN(Cc1ccc(C(F)(F)F)cc1)C(=O)c1ccc(Oc2ccccc2)cc1 | inactive: -24.6% | –
56 | COc1ccc(NC(=O)CSC2=Nc3ccccc3C3=NC(CC(=O)NCc4ccc(F)cc4)C(=O)N23)cc1 (stereo not given) | inactive: -6.74% | –
57 | COc1ccc(C(Nc2cc(C)ccn2)c2ccc3ccc(C)nc3c2O)cc1 (stereo not given) | inconclusive: -31.8% [inhibitor] | –
58 | Cc1ccc(Cl)cc1NC(=O)C(=O)NCCc1sc(-c2ccc(F)cc2)nc1C | – | inconclusive: 29.1 µM [inhibitor, single point]
59 | CCC1CCCCN1C(=S)Nc1cccc(S(=O)(=O)N(C)C)c1 (stereo not given) | inactive: -28.7% | –
60 | CCc1ccc(-c2nn(CC(=O)NC3CCCCC3)c3c2cnc2ccc(OC)cc23)cc1 | – | active: 5.8 µM
61 | CCCc1ccc(C(=O)N2CCN(c3ccccc3OCC)CC2)cc1 | – | inconclusive: 29.1 µM [inhibitor, single point]
62 | CN1CCN(c2ncc3ncc(=O)n(CCc4ccccc4)c3n2)CC1 | inactive: 4.19% | –
63 | COc1ccccc1CNc1ncc(-c2ccc(F)cc2)n1C | – | inconclusive: 18.4 µM [inhibitor, single point]
64 | CC(CN1CC(=O)NC(=O)C1)N1CC(=O)NC(=O)C1 (stereo not given) | – | inconclusive: 23.1 µM [inhibitor, partial curve]
65 | COc1ccc(CCNC(=O)c2ccc([N+](=O)[O-])cc2)cc1 | – | active: 23.1 µM
66 | CC1CCCC(NC(=O)c2ccc(F)c(S(=O)(=O)N3CCOCC3)c2)C1C (stereo not given) | – | inconclusive: 29.1 µM [inhibitor, single point]
67 | Cc1cccc([C@H]2[C@@H]3C=CCC[C@@H]3C(=O)N2Cc2ccccc2)c1 | – | inconclusive: 29.1 µM [inhibitor, single point]
68 | C=CCc1ccccc1OCC(O)CN1CCN(CCN2C(=O)c3cccc4cccc(c34)C2=O)CC1 (stereo not given) | – | inconclusive: 29.1 µM [inhibitor, single point]
69 | COC(=O)C1=C(C)N(Cc2ccccc2)C(=NCC2CC2)N[C@H]1c1ccccc1 | – | active: 20.6 µM
70 | COc1cccc(NC(=O)/C(C#N)=C\c2cn(Cc3ccc(Cl)cc3)c3ccccc23)c1 | – | inconclusive: 14.6 µM [inhibitor, partial curve]
